In all, about 220,000 compounds went through this assay and about 2,300 (1%) were called active. The inconclusive results got no clear call from the source; some entries with a clear call stand among them for comparison. Calls follow the shape of the dose curve; as a rule, active = well fitted inhibition curve with a large enough effect; inconclusive = small, poorly fitted or top-dose-only effect, or effect the other way; inactive = no such curve, though single readings can be large or run the other way. Potencies of inconclusive entries are left out as doubtful fits.
Biological target: Neuropeptide S receptor (Homo sapiens) (UniProt Q6W5P4)
UniProt Q6W5P4, sequence (Q6W5P4 whole entry, looked up): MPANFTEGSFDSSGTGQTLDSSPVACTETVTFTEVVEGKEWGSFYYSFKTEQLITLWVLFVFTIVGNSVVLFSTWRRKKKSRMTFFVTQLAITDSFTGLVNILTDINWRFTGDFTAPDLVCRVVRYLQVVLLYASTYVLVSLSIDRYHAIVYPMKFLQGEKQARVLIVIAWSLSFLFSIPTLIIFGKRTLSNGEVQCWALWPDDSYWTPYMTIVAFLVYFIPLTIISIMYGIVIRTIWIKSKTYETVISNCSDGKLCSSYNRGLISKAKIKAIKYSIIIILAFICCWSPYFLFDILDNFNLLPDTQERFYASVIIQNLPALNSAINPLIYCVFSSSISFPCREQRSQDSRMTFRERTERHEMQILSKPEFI
Test: qHTS Assay for Antagonists of the Neuropeptide S Receptor: cAMP Signal Transduction; also: nearly all actives have a fitted effect of over 50% in size
Details: CHO-NPSR cells, cAMP TR-FRET, antagonist mode; activity change, negative = inhibition: at 38.3 µM (top of the series) unless noted
% is scaled to controls: 0 for no effect and ±100 for the full control effect; potency is read from the fitted curve at half-maximal effect; tags tell the direction and shape of the fitted curve.

| SMILES | Potency | activity change, negative = inhibition |
| --- | --- | --- |
| Cc1ccc(S(=O)(=O)/N=C(/NC(=S)Nc2ccccc2)c2ccccc2)cc1 | inactive |  |
| Cc1ccc(C)c2[nH]c(=O)c(CN(Cc3nnnn3C3CCCCC3)CC3CCCO3)cc12 (centres undefined) | inconclusive [inhibitor, partial curve] |  |
| Oc1[nH]c2ccccc2c1N=NC(=S)NCCc1ccccc1 | inactive |  |
| Cc1ccc(-c2nc(N/N=C/c3ccncc3)c3ccccc3n2)cc1 | inconclusive [inhibitor, single point] |  |
| CCCCN(CCCNc1ncnc2nc[nH]c12)c1ccccc1 | inconclusive [inhibitor, single point] |  |
| Cn1c(C(=O)NCCN2CCOCC2)cc2sccc21 | inconclusive [inhibitor, single point] |  |
| COC(=O)C1=C(N)Oc2cc(N(C)C)ccc2C1c1ccccc1OC (centres undefined) | inconclusive [activator, single point] |  |
| Cc1cc2cc(C(c3nnnn3Cc3ccco3)N3CCc4ccccc43)c(=O)[nH]c2cc1C (centres undefined) | inconclusive [inhibitor, full curve, poor fit] |  |
| CCC(c1nnnn1C1CCCCC1)N(Cc1ccco1)Cc1cc2ccc(OC)cc2[nH]c1=O (centres undefined) | inconclusive [inhibitor, partial curve] |  |
| O=c1cc(N2CCCCC2)c(-c2ccccc2)nn1Cc1cccc(Cl)c1 | inconclusive [inhibitor, single point] |  |
| Cc1nn(-c2ccc(Cl)cc2)c2[nH]c(=O)c(CNCc3ccc4c(c3)OCO4)cc12 | inconclusive [inhibitor, partial curve, poor fit] |  |
| Cc1cc2oc(=O)cc(CN3CCCc4ccccc43)c2cc1C | inconclusive [inhibitor, full curve] |  |
| Cc1cc(C)c(OCCCCN(C)C)c(Br)c1 | inactive |  |
| CC(C)COC(=O)NCCCOC(=O)Nc1ccccc1 | inactive |  |
| CN1CCN(C2=Cc3cc(Cl)ccc3Sc3cc(F)ccc32)CC1 | inconclusive [inhibitor, single point] |  |
| CCOC(=O)N1CCN(C(=S)NC(=O)c2nn(C)cc2Br)CC1 | inactive |  |
| COc1cc(OC)cc(C(=O)Oc2c(CN3CCOCC3)cc(Cl)c3cccnc23)c1 | inconclusive [activator, full curve] |  |
| O=C(CSc1nnc(Cc2cccs2)n1CCc1ccccc1)N1CCCc2ccccc21 | inconclusive [inhibitor, partial curve, poor fit] |  |
| Cc1ccc(S(=O)(=O)Oc2ccccc2/C=N/N=C(N)N)cc1 | inactive |  |
| COCCN(CC(=O)NCc1ccc2c(c1)OCO2)C(=O)CCC(=O)Nc1nccs1 | inactive |  |
| O=C(c1cccs1)N1CCCN(c2ncnc3scc(-c4ccccc4)c23)CC1 | inconclusive [activator, partial curve] |  |
| Oc1ccc(/C=C/c2ccc3ccccc3n2)cc1 | inactive |  |
| CCc1ccccc1NC(=O)C1NC(=O)CC1c1ccccc1 (centres undefined) | inconclusive [inhibitor, single point] |  |

| SMILES | Potency | activity change, negative = inhibition |
| --- | --- | --- |
| Cc1nccc(-c2cccc(N/N=C(\C#N)C(=O)c3ccccc3)c2)n1 |  | inactive: 51.3% [at 7.67 µM] |
| COCCCn1c(SCC(=O)Nc2ccc(C(=O)OC)cc2)nc2ccccc2c1=O | inconclusive [inhibitor, partial curve, poor fit] |  |
| COc1cccc(NC(=O)N2CCCC2C(=O)Nc2ccc3c(c2)OCO3)c1 (centres undefined) | inconclusive [activator, single point] |  |
| Cc1ccc(/C=N/n2c(-c3ccco3)n[nH]c2=S)cc1 | inconclusive [inhibitor, single point] |  |
| Clc1cccc(Cl)c1Cn1cnc(=NCc2ccco2)c2[nH]cnc21 | inactive |  |
| Cc1cc(C)nc(-n2nc(C)c(C3(O)C(=O)Nc4ccc(F)cc43)c2N)n1 (centres undefined) | inconclusive [inhibitor, partial curve] |  |
| O=C(CN(Cc1ccccc1)S(=O)(=O)c1ccccc1)N/N=C/c1ccc2c(c1)OCO2 | inconclusive [inhibitor, single point] |  |
| CCOc1ccc(C(=O)N/N=C/c2ccc(-c3ccc(S(=O)(=O)Nc4ncccn4)cc3)o2)cc1 | inactive |  |
| O=C(NN1C(=O)C2C3CCC(O3)C2C1=O)c1ccc(Cl)cc1 (centres undefined) | inactive |  |
| O=C(NCCC1=CCCCC1)c1ccc(Br)o1 | inactive |  |
| O=C(CN1CCC(C(=O)c2ccc(Cl)cc2)CC1)Nc1ccc2c(c1)OCCO2 | inconclusive [inhibitor, single point] |  |
| O=[N+]([O-])c1c(NCCO)cc(Sc2nc3ccccc3s2)c2nonc12 | active: 10 µM |  |
| CCCN1C(=O)/C(=N\OCC(=O)NC23CC4CC(CC(C4)C2)C3)c2ccccc21 | inconclusive [inhibitor, partial curve, poor fit] |  |
| Cc1onc(-c2ccccc2)c1C(=O)N1CCCc2ccccc21 | inconclusive [inhibitor, partial curve, poor fit] |  |
| Cc1ccc(-c2nnc(N3CCN(C(=O)COc4ccccc4)CC3)c3ccccc23)cc1 | inconclusive [inhibitor, partial curve] |  |
| CCOc1ccc(C(=O)NC(=S)N(Cc2ccccc2)Cc2ccccc2)cc1 | inconclusive [inhibitor, partial curve] |  |
| Oc1cc(OCc2ccccc2)ccc1-c1[nH]ncc1-c1ccccc1 | inconclusive [inhibitor, single point] |  |
| Cc1ccc(-n2c(C)cc(/C=N/NC(=O)CC3(C)OCCO3)c2C)c(C)c1 | inconclusive [activator, partial curve] |  |
| Cc1c(NC2(c3nnnn3-c3ccc(Br)cc3)CCCCC2)c(=O)n(-c2ccccc2)n1C | inconclusive [inhibitor, partial curve] |  |
| O=C(CSC1=NCCS1)N1CCN(c2ccccc2)CC1 | inactive |  |
| CC(C)OC(=O)C1CC=CCC1C(=O)Nc1ccc(Cl)cc1 (centres undefined) | inconclusive [activator, partial curve] |  |
| Cn1ccc2cc3c(cc21)CCN3C(=O)Nc1cccnc1 | inconclusive [inhibitor, full curve] |  |
| COc1ccc(CCN2CC34C=CC(O3)C(C(=O)NCc3ccccc3)C4C2=O)cc1OC (centres undefined) | inactive |  |

| SMILES | Potency | activity change, negative = inhibition |
| --- | --- | --- |
| CC1CCc2c(sc3c2C2=NS(=O)(=O)CCN2C=N3)C1 (centres undefined) | inconclusive [activator, single point] |  |
| Oc1ccccc1-c1nc(NCCN2CCOCC2)c2ccccc2n1 | inconclusive [inhibitor, single point] |  |
| CCCC1(c2ccccc2)NC(=O)N(CC(=O)Nc2sc(-c3ccccc3)cc2C(=O)OCC)C1=O (centres undefined) | inconclusive [activator, partial curve] |  |
| COc1ccc(C2CC(=O)Oc3c(C(CCN4CCOCC4)c4cc(OC)c(OC)c(OC)c4)c(OC)cc(OC)c32)cc1 (centres undefined) | inconclusive [inhibitor, single point] |  |
| COC(=O)c1cc(OC)c(OC)cc1NC(=O)c1c(-c2ccccc2Cl)noc1C | inconclusive [inhibitor, partial curve] |  |
| O=C(Nc1nc(=O)c2ccccc2s1)c1ccc(F)cc1 | inconclusive [activator, single point] |  |
| O=C(Nc1ccc(S(=O)(=O)NCCc2ccccc2)cc1)c1ccc(Br)o1 | inconclusive [inhibitor, partial curve, poor fit] |  |
| c1ccc(C(c2ccccc2)c2nc(-c3cccnc3)no2)cc1 | inconclusive [inhibitor, single point] |  |
| CCN(CC)S(=O)(=O)c1ccc(N2CCCC2)c(NC(=O)c2ccc(OC)cc2OC)c1 | inactive |  |
| O=C1c2sc3nc4ccccc4n3c2C(=O)N1c1ccccc1Cl | active: 10 µM |  |
| O=C(COc1c(Br)cc(Br)c2cccnc12)Nc1ccccc1F | inconclusive [inhibitor, single point] |  |
| Cc1ccc(CNc2ccc3c(c2)OCO3)cc1 | inactive |  |
| COC(=O)n1c(=O)oc2cc(S(=O)(=O)N3CCCCC3)ccc21 | inactive |  |
| CCN1/C(=C/C(C)=C/c2sc3ccccc3[n+]2CC)Sc2ccccc21 | inconclusive [inhibitor, single point] |  |
| CCOc1ccc(/C(O)=C2/C(=O)C(=O)N(CCOCCO)C2c2cccnc2)cc1 (centres undefined) | inconclusive [activator, single point] |  |
| O=C(NC(=S)Nc1ccccc1N1CCOCC1)c1sc2ccccc2c1Cl | inactive |  |
| CCOc1nc(NC2CCCCC2)nc(NC(C)(C)C)n1 | inconclusive [inhibitor, single point] |  |
| Cc1sc(NC(=O)/C=C/c2ccco2)c(C(=O)O)c1C | inconclusive [inhibitor, single point] |  |
| O=c1[nH]c(C2CCCN(S(=O)(=O)c3ccccc3)C2)nc2c1nnn2Cc1ccccc1 (centres undefined) | inconclusive [inhibitor, partial curve, poor fit] |  |
| Cc1ccccc1S(=O)(=O)Cc1ccc(C(=O)NC(C)c2ccc3c(c2)OCCO3)o1 (centres undefined) | inactive |  |
| Cc1ccc(Nc2c(-c3ccccc3O)nc3cnccn23)cc1 | inactive |  |
| O=C(NCCSc1c(-c2ccccc2)[nH]c2ccccc12)c1cc2ccccc2oc1=O | inactive |  |
| O=C(Nc1cc(Cl)ccc1Oc1ccccc1)c1ccccc1F | inconclusive [inhibitor, single point] |  |

Reference: PubChem BioAssay AID1461 (National Center for Advancing Translational Sciences (NCATS), 2008)
